# Experimental data published in PMC4336329 (PLoS ONE, 2015).
# Out of some 310,000 compounds screened, about 2,200 (0.71%) showed an effect of 50% or more. The effect is printed as a negative number. Some of the results follow.
# Target: human ether-à-go-go-related gene (hERG) potassium channel (human, UniProt Q12809)
# Experiment: primary screen, population patch clamp on CHO cells stably expressing hERG
# Chain of human ether-à-go-go-related gene (hERG) potassium channel (Q12809 whole entry, looked up): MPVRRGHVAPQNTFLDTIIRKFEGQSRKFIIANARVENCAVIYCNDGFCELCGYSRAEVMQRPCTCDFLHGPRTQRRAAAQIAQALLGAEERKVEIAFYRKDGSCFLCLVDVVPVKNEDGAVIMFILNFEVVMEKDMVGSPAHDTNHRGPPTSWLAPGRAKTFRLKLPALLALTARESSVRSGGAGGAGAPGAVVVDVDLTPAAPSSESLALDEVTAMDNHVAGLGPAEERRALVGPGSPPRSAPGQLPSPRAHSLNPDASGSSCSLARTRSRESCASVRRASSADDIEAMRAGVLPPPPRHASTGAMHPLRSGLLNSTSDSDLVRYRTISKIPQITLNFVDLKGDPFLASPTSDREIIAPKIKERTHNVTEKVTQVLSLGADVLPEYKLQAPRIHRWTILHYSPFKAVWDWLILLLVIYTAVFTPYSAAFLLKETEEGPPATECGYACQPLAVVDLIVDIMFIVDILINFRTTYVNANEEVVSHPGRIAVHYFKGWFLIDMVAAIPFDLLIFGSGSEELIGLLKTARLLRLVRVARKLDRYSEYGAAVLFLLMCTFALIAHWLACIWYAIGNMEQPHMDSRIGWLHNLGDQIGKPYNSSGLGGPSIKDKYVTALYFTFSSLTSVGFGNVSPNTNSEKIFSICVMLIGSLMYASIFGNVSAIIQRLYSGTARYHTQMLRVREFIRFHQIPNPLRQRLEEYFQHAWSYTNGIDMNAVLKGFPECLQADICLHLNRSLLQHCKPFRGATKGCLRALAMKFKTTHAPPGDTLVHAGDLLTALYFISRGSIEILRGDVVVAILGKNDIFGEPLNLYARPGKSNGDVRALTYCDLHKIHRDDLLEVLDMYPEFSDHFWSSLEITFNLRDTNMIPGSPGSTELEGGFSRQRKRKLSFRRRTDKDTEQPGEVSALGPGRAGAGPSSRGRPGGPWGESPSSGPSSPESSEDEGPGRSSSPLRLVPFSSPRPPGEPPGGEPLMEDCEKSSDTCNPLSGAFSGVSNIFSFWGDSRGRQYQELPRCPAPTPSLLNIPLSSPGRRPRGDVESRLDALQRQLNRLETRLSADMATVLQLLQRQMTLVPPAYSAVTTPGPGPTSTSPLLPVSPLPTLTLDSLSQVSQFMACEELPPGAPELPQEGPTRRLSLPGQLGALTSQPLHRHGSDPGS
row,SMILES,"hERG current change (%, negative = inhibition) at 1uM [%]"
1,C=CCC12C=C(OC)C(=O)OC(OC)(C1O)[C@H](c1ccc3c(c1)OCO3)[C@H]2C (stereo partly drawn),12.8
2,Cc1ccc2[nH]c(=O)c(CN(CCc3ccccc3)C(=O)N3CCOCC3)cc2c1,2.19
3,CC(C)CCNC(=O)C1CCC(CNc2c(N3CCCC3)c(=O)c2=O)CC1 (stereo not drawn),11.3
4,O=C(COC(=O)/C=C/c1ccccc1[N+](=O)[O-])Nc1ccc(OC(F)F)cc1,9.59
5,CC(C)(C)C(=O)NNC(=O)c1cnccn1,6.94
6,Cc1ccc(-c2cccc(OC(=O)c3ccccc3F)c2)cc1,4.52
7,Cc1ccc(C)c(NS(=O)(=O)c2cc(Br)cnc2N)c1,11.4
8,Cc1ccc(S(=O)(=O)Nc2ccc(S(=O)(=O)N3CCOCC3)cc2)cc1,11.1
9,Cc1ccc(C)c(S(=O)(=O)N2CCN(CC(=O)Nc3cc(C)on3)CC2)c1,0.567
10,CCCCNC(=S)Nc1ccc(Oc2ccccc2)cc1,5.29
11,CC(NS(=O)(=O)c1ccccc1)C(c1cccs1)N1CCN(C)CC1 (stereo not drawn),14.3
12,c1ccc(-c2nn3c(Cn4cnc5ccccc54)nnc3s2)cc1,-0.727
13,Cc1cc(-c2ccc(Cl)cc2Cl)c(C#N)c(=O)[nH]1,9.39
14,CN(C)S(=O)(=O)c1cccn1-c1ncc(C(F)(F)F)cc1Cl,2.65
15,Cc1ccc(-n2c(SCc3ccc(C#N)cc3)nnc2-c2ccccn2)cc1,-6.99
16,COCCn1c(SCC(=O)N2CCCCCC2)nnc1-c1ccco1,18.6
17,Cc1nc(SCC(=O)O)c(C#N)c(C)c1CC(=O)c1ccccc1,14.7
18,NC(=S)N/N=C/c1ccccc1O,13
19,CCOC(=O)N1C2=NC(C(=O)OC)=C(C(=O)OC)[C@@H]3N(C)c4ccc(OC)cc4[C@]23C[C@H]1C(=O)OC,12.8
20,COC(=O)Nc1c(-c2ccccc2)nc2ccccn12,9.79
21,CCCCN(Cc1cc2cc(OC)ccc2[nH]c1=O)C(=O)c1ccco1,9.48
22,CC(C)C(NS(=O)(=O)c1ccc2c(c1)Cc1cc(S(=O)(=O)NC(C(=O)O)C(C)C)ccc1-2)C(=O)O (stereo not drawn),15.7
23,O=C(O)C1CCCN1c1ncnc2ccccc12 (stereo not drawn),18.7

row,SMILES,"hERG current change (%, negative = inhibition) at 1uM [%]"
1,Cc1ccc(N/C(N)=N/c2nc(CSc3nnc(N)s3)cc(=O)[nH]2)cc1,14.5
2,CCN(CC)S(=O)(=O)c1ccc2oc(C(=O)N3CCc4ccccc4C3)c(C)c2c1,-5.15
3,CC(C)N1CCc2c(sc(NC(=O)c3ccc(S(=O)(=O)N4CCc5ccccc54)cc3)c2C(N)=O)C1.Cl,0.65
4,COc1ccc(CCNC(N)=S)cc1OC,14.7
5,C/C(=N\N1CCN(C2c3ccccc3-c3ccccc32)CC1)c1cccnc1,5.87
6,Cc1ccc(C(=O)COC(=O)c2ccc(-c3cnc4ccccc4n3)cc2)cc1C,-2.25
7,COc1cc(C(=O)OC(C)CN2CCOCC2)cc(OC)c1OC (stereo not drawn),7.53
8,COCCn1nnnc1C(C(C)C)N1CCN(C(=O)c2ccco2)CC1.Cl (stereo not drawn),2.85
9,O=c1c(-c2ccc(O)cc2)coc2cc(O)cc(O)c12,13.4
10,NC(=O)c1ccccc1N=Cc1ccccn1,5.54
11,CCC(/C=N/NC(=O)CCCCC(=O)N/N=C/C(CC)CC)CC,1.99
12,COc1ccc(NS(=O)(=O)c2ccc(N)c(C(=O)O)c2)cc1,8.84
13,COC(=O)c1scc(C)c1NC(=O)c1cccc(C#N)c1,9.03
14,CCOC(=O)c1oc2cccc(O)c2c1C,5.17
15,COC(=O)c1scc(C)c1NC(=O)C(Cl)c1ccccc1 (stereo not drawn),11.2
16,C=CCc1ccccc1OCC(=O)NNC(=S)NCc1ccccc1,4.14
17,Cc1cc(C)c2nc(SCC(=O)NCC3CCCO3)c(C#N)cc2c1 (stereo not drawn),11.5
18,O=C1NS(=O)c2cc([N+](=O)[O-])cc([N+](=O)[O-])c21 (stereo not drawn),15.3
19,O=C(CCNc1cccc(C(F)(F)F)c1)c1ccco1,11.1
20,Cc1ccc(-n2cc(CNCCn3nc(C)cc3C)c(-c3ccc(F)cc3)n2)cc1,3.16
21,Cc1occc1C(=O)Nc1ccc2c(c1)OCO2,-6.03
22,COc1cc(OC)c(C(=O)OC(C)C(=O)Nc2cc(C(F)(F)F)ccc2Cl)cc1OC (stereo not drawn),9.7
23,Cc1cc2occ(CC(=O)N(C)CC(=O)Nc3c(C)cccc3C)c2cc1C,16.8

row,SMILES,"hERG current change (%, negative = inhibition) at 1uM [%]"
1,Cc1ccc(OCCOc2cccc(C=C3C(=O)NC(=O)NC3=O)c2)c(C)c1,11.9
2,COC(=O)c1c(C)n(Cc2ccco2)c2ccc(O)cc12,-0.551
3,COC(=O)CSC1=NS(=O)(=O)c2ccccc21,7.75
4,Cn1c(=O)c2c(nc(NCc3cccnc3)n2Cc2ccccc2Cl)n(C)c1=O,4.67
5,O=C(Nc1cc(Cl)ccc1O)c1cc(-c2ccco2)on1,15.1
6,COc1ccc(C(=O)NC2CC2)cc1OC1CCN(Cc2ccccc2F)CC1,-64.5
7,C/C(=N/NS(=O)(=O)c1cc(C)ccc1C)c1c[nH]c2ccccc12,4.19
8,CCc1cc(C(=O)N2CCN(c3ccccn3)CC2)sc1C,7.26
9,CC1CCC(CN2CCN=C2Nc2ccccc2)CC1 (stereo not drawn),7.55
10,CCOC(=O)c1nnc(-c2cccs2)nc1Oc1ccc(Cl)cc1,11
11,COCCN(CCOC)S(=O)(=O)c1ccc(C(=O)Nc2nnc(C)o2)cc1,9.36
12,CCCCC(CCC(=O)Nc1ccccc1C(=O)OCC)C(=O)O (stereo not drawn),3.35
13,COc1ccccc1C(=O)N1CCN(C(=O)c2ccncc2)CC1,0.151
14,COc1cccc2oc3cc(C#Cc4ccccn4)ccc3c(=O)c12,11.1
15,O=C(Nc1ccc2c(c1)OCO2)c1cc(-c2ccc(O)cc2)on1,18.4
16,Cc1ccc(C)c(N=Cc2c(O)c3ccccc3oc2=O)c1,15.5
17,CN1CCN(C(=O)c2ccc3c(Cl)c4c(nc3c2)CCCC4)CC1,-0.735
18,Cc1cccc(/C=N/NC(=O)c2c(-c3ccccc3)noc2C)c1O,6.85
19,Cc1cccc(NC(=O)CSc2c3c(nc4ccccc24)CCC3)n1,-1.85
20,CCOC(=O)C1CCN(CC(=O)Nc2cc(S(=O)(=O)N3CCOCC3)ccc2C)CC1.O=C(O)C(=O)O,3.87
21,C/C(=N/NC(=O)c1ccc(NC(=O)c2ccc(F)cc2)cc1)c1ccccc1,3.01
22,O=c1/c(=C/c2ccco2)sc2nc(-c3ccccc3Br)nn12,10.4
23,O=C(c1ccco1)N1CCN(S(=O)(=O)c2cccc([N+](=O)[O-])c2)CC1,0.797

row,SMILES,"hERG current change (%, negative = inhibition) at 1uM [%]"
1,CC1CCN(C(=O)c2[nH]cnc2C(=O)NCCCCCNC(=O)OC(C)(C)C)CC1,14.7
2,O=C(Nc1cccnc1)c1coc(=O)c2ccccc12,9.35
3,CCN(Cc1ccc2c(c1)OCCO2)S(=O)(=O)c1ccc(NC(C)=O)cc1,1.36
4,Cc1ccc(S(=O)(=O)CCc2nnc(NC(=O)c3ccccn3)s2)cc1,7.42
5,Cc1nc(NC(=O)c2ccccc2)sc1C,16.6
6,CCOc1ccccc1C(=O)NC(C(=O)NCc1ccccc1OC)C(C)C (stereo not drawn),-4.79
7,Cc1ccc(C(=O)N[C@H](C(=O)N2CCN(c3ccccc3F)CC2)C(C)C)cc1,-1.2
8,CCOc1cc(N2CCOCC2)c(OCC)cc1NC(=O)C(C)(C)C,11.3
9,CC1=Nc2ccccc2N=C(NC(=O)c2ccccc2)C1c1ccc(Cl)cc1 (stereo not drawn),19.7
10,CCCC(C(=O)Nc1ccncc1)c1ccccc1 (stereo not drawn),17.3
11,NC(=O)c1cc(S(=O)(=O)Nc2ccc(OC(F)(F)F)cc2)cs1,7.6
12,Cc1c(CC(=O)NCCCCCC(=O)O)c(=O)oc2cc3c(cc12)CCC(C)(C)O3,11.6
13,O=C(Nc1ccc2oc(-c3ccccc3)nc2c1)c1cccnc1,5.6
14,Cc1ccc(S(=O)(=O)NCCC(=O)OCC(=O)Nc2cccc(Cl)c2)cc1,-5.44
15,Cl.Fc1ccc(COc2ccccc2CNCc2ccncc2)cc1,2.16
16,Cc1cc(C(=O)C[N+]23CCN(CC2)CC3)c(C)n1-c1ccc(Br)cc1.[Cl-],9.53
17,Cc1ccc2c(c1)[nH]c1c(=O)n(Cc3ccco3)cnc12,9.96
18,CC(C)(C)CN1C(N)=NC[C@@H]1c1ccccc1,20.2
19,COc1ccc(S(=O)(=O)Nc2ccncc2)c(C)c1C,15.6
20,CCCCCCN=C(CC)c1c(O)n(CCCC)c(=O)[nH]c1=O,-9.05
21,CCN(CC)CCCNC(=O)c1c(O)c2c([nH]c1=O)CCCC2,2.87
